{
  "source": "PubChem BioAssay (EPA / NIEHS)",
  "key": {"[1]": {"read-out": "Vascular cell adhesion molecule 1 (VCAM1), VCAM1 (gene 7412)", "assay": "BSK_4H_VCAM1: BioMAP Diversity Plus: 4H Assay for Vascular cell adhesion molecule 1 (VCAM1) Biomarker Activity (AID 2283033);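 also: cell-surface VCAM-1 protein measured by ELISA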", "conditions": "actives raise or lower the signal; primary human endothelial cells (HUVEC)", "procedure,_shortened": "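Endpoint derived from bidirectional fitting against DMSO controls of VCAM-1 ELISA signal in umbilical vein endothelial cells sampled at 24 h following treatment.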"}, "[2]": {"assay": "CEETOX_H295R_11DCORT: CeeTox H295R High-throughput Steroidogenesis Assay for 11-Deoxycortisol (11DCORT) (AID 2283432)", "conditions": "actives raise or lower the signal", "procedure,_shortened": "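H295R cells; 10 uM forskolin prestim 48 h; compound in 0.1% DMSO 48 h; media extracted with MTBE; 11-deoxycortisol by LC-MS/MS, 7-point standard curve; gain/loss vs DMSO baseline; viability by MTT in same wells.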"}, "[3]": {"assay": "Tanguay_ZF_120hpf_SNOU_legacy: (Legacy) Oregon State University Tanguay Lab 120 Hour Post-fertilization zebrafish Assay for Snout Malformation (AID 2283637; active = hit-call score of the fitted dose curve at least 0.9, where 1 is the maximum)", "procedure,_shortened": "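Tropical 5D wild-type zebrafish embryos, dechorionated with pronase at 4 hpf, were exposed singly from 6 hpf to 120 hpf statically at 28C in 0.64% DMSO. Snout malformation was scored present/absent by brightfield microscopy, fitted against DMSO.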"}, "[4]": {"assay": "ACEA_AR_antagonist_AUC_viability: ACEA Biosciences xCELLigence Real-Time Cell Analysis on Androgen Receptor Antagonism for Viability (AID 2283776; active = hit-call score of the fitted dose curve at least 0.9, where 1 is the maximum;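 also: 22Rv1 human prostate cancer cells growing on impedance electrode plates; area under impedance growth curve at 80 h after dosing as viability; hits lower the growth signal relative to DMSO meaning cytotoxicity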)", "procedure,_shortened": "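Real-time electrical impedance tracks 22Rv1 proliferation after continuous compound exposure (top 100 uM final, 1:4 steps, 8 concentrations). The 80 h area-under-curve serves as the cytotoxicity readout relative to DMSO.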"}, "[5]": {"assay": "CCTE_Shafer_MEA_acute_per_burst_spike_number_mean: CCTE's Neural Acute Assay for Average Number of Spikes Per Burst, Shafer Lab (AID 2284015)", "procedure,_shortened": "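Primary rat cortical neurons on 48-well MEA plates, treated on DIV 13 or 15 at 0.03-40 uM. Spontaneous activity recorded 40 min before and 40 min after compound at 37 C; percent change in mean spikes per single-electrode burst per well, fitted in the loss direction versus DMSO.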"}, "[6]": {"assay": "CCTE_Mundy_HCI_Cortical_Synap_Neur_Matur_NeuriteSpotCountPerNeuriteLength: CCTE's Synaptogenesis and Neurite Maturation Assay in rat cortical cells for Neurite Spot Count per Neurite Length, Mundy Lab (AID 2284210)", "procedure,_shortened": "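Rat primary cortical cultures, glia arrested with AraC at DIV 5, were dosed with media change at DIV 7 and fixed at DIV 12. Synaptophysin puncta per MAP2-labelled neurite length were quantified by high-content imaging versus DMSO.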"}, "[7]": {"read-out": "Urokinase-type plasminogen activator receptor (uPAR), PLAUR (gene 5329)", "assay": "BSK_4H_uPAR: BioMAP Diversity Plus: 4H Assay for Urokinase-type plasminogen activator receptor (uPAR) Biomarker Activity (AID 2283030)", "conditions": "actives raise or lower the signal; primary human endothelial cells (HUVEC)", "procedure,_shortened": "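Endpoint derived via bidirectional curve fitting against DMSO baseline; readout was ELISA detection of uPAR on umbilical vein endothelial cells at 24 h post-treatment, with SRB-stained parallel cultures assessing cytotoxicity.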"}, "[8]": {"read-out": "Interleukin-8 (IL8), CXCL8 (gene 3576)", "assay": "BSK_LPS_IL8: BioMAP Diversity Plus: LPS Assay for Interleukin-8 (IL8) Biomarker Activity (AID 2283078)", "conditions": "actives raise or lower the signal; primary human HUVEC with PBMC", "procedure,_shortened": "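In this LPS system, chemical-treated human umbilical vein endothelium/PBMC co-cultures were harvested at 24 h for IL-8 ELISA.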"}, "[9]": {"system": "frog Estrogen Receptor (ESR1), gene 398734", "assay": "ATG_frER1_XSP1: Attagene TRANS-FACTORIAL Multi-Species (XSP1) HepG2 Assay for frog Estrogen Receptor (ESR1) (AID 2283777; active = hit-call score of the fitted dose curve at least 0.9, where 1 is the maximum)", "procedure,_shortened": "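Read-out: fluorescent reporter mRNA via RT-PCR, HpaI digestion and capillary electrophoresis, after 24 h chemical exposure of transiently transfected human HepG2 cells expressing exogenous NR-Gal4 chimeras. DMSO served as baseline for positive-direction fitting.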"}, "[10]": {"read-out": "urokinase plasminogen activator (uPA), PLAU (gene 5328)", "assay": "BSK_BE3C_uPA: BioMAP Diversity Plus: BE3C Assay for urokinase plasminogen activator (uPA) Biomarker Activity (AID 2283038)", "conditions": "actives raise or lower the signal; primary human bronchial epithelial cells", "procedure,_shortened": "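Using confluent primary human lung bronchial epithelial cultures, we dosed chemicals, waited 24 h, then ran a uPA ELISA, fitting bidirectionally against DMSO.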"}, "[11]": {"read-out": "Matrix Metallopeptidase 9 (MMP9), MMP9 (gene 4318)", "assay": "BSK_KF3CT_MMP9: BioMAP Diversity Plus: KF3CT Assay for Matrix Metallopeptidase 9 (MMP9) Biomarker Activity (AID 2283074)", "conditions": "actives raise or lower the signal; primary human keratinocytes with fibroblasts", "procedure,_shortened": "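Keratinocyte plus foreskin fibroblast human primary skin co-culture was dosed with chemical and MMP-9 was quantified by ELISA 24 h later. Bidirectional curve fitting used DMSO as negative control and activity baseline.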"}, "CD40, CD40 (gene 958)": {"read-out": "CD40, CD40 (gene 958)", "assay": "BSK_SAg_CD40: BioMAP Diversity Plus: SAg Assay for CD40 Biomarker Activity (AID 2283088)", "conditions": "actives raise or lower the signal; primary human HUVEC with PBMC", "procedure,_shortened": "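Endpoint derived by fitting increases or decreases versus DMSO controls. CD40 is detected by fluorescence ELISA in a human vascular co-culture of endothelium and PBMC at 24 h.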"}},
  "note": "For some of these results: Most of the hits are listed elsewhere, so they are rarer here than in the full data. Inconclusive results are not listed. This is a selection; strong and weak results do not stand in their true shares. More than one record can exist for a structure, and the calls need not agree. Activity calls are given as the source filed them. The calls were made as follows, unless noted: active = hit-call score of the fitted dose curve at least 0.9, where 1 is the maximum; inactive = score below 0.9.",
  "data": [
    {"compound": "COP(=S)(OC)Oc1nc(Cl)c(Cl)cc1Cl", "values": [
      {"measurement": "outcome", "setting": "[1]", "result": "inactive"},
      {"measurement": "outcome", "setting": "[2]", "result": "inactive"},
      {"measurement": "AC50", "setting": "[3]", "result": "active: 51.2 µM"},
      {"measurement": "AC50", "setting": "[4]", "result": "active: 73.8 µM"},
      {"measurement": "outcome", "setting": "[5]", "result": "inactive"},
      {"measurement": "outcome", "setting": "[6]", "result": "inactive"}
    ]},
    {"compound": "CSC(=O)c1c(C(F)F)nc(C(F)(F)F)c(C(=O)SC)c1CC(C)C", "values": [
      {"measurement": "AC50", "setting": "[7]", "result": "active: 13.3 µM"},
      {"measurement": "AC50", "setting": "[8]", "result": "active: 14.8 µM"},
      {"measurement": "outcome", "setting": "[9]", "result": "inactive"}
    ]},
    {"compound": "CC1(C)[C@H](C(=O)O[C@H](C#N)c2cccc(Oc3ccccc3)c2)[C@@H]1/C=C(\\Cl)C(F)(F)F", "values": [
      {"measurement": "AC50", "setting": "[10]", "result": "active: 1.97 µM"},
      {"measurement": "outcome", "setting": "[11]", "result": "inactive"},
      {"measurement": "outcome", "setting": "CD40, CD40 (gene 958)", "result": "inactive"},
      {"measurement": "outcome", "setting": "[4]", "result": "inactive"}
    ]}
  ]
}
